Measured values reported in the supplement of paper PMC10886265.

Assays:
Experiment in all cases: Broth microdilution (CLSI), cation-adjusted Mueller-Hinton broth, two-fold steps from 0.25 to 128 µg/mL, 18 h at 37 °C.
Meropenem = compound: C[C@@H](O)[C@H]1C(=O)N2C(C(=O)O)=C(S[C@@H]3CN[C@H](C(=O)N(C)C)C3)[C@H](C)[C@H]12 [Meropenem]
Imipenem = compound: C[C@@H](O)[C@H]1C(=O)N2C(C(=O)O)=C(SCCNC=N)C[C@H]12 [Imipenem]
Ertapenem = compound: C[C@@H](O)[C@H]1C(=O)N2C(C(=O)O)=C(S[C@@H]3CN[C@H](C(=O)Nc4cccc(C(=O)O)c4)C3)[C@H](C)[C@H]12 [Ertapenem]

Row | Test System | MIC (Meropenem) | MIC (Imipenem) | MIC (Ertapenem)
1 | Enterobacter asburiae isolate sewage #121 (carbapenemase genes (PCR): KPC) | 64 µg/mL | 32 µg/mL | 8 µg/mL
2 | Klebsiella oxytoca isolate secondary sludge #184 (carbapenemase genes (PCR): KPC) | 32 µg/mL | 16 µg/mL | 8 µg/mL
3 | Pseudomonas aeruginosa isolate secondary sludge #206 (carbapenemase genes (PCR): VIM) | 64 µg/mL | 32 µg/mL | 8 µg/mL
4 | Citrobacter freundii isolate secondary sludge #163 (carbapenemase genes (PCR): KPC) | 32 µg/mL | 16 µg/mL | 32 µg/mL
5 | Citrobacter freundii isolate secondary sludge #162 (carbapenemase genes (PCR): KPC) | 32 µg/mL | 16 µg/mL | 32 µg/mL
6 | Enterobacter asburiae isolate sewage #29 (carbapenemase genes (PCR): KPC) | 8 µg/mL | 4 µg/mL | 16 µg/mL
7 | Klebsiella oxytoca isolate secondary sludge #168 (carbapenemase genes (PCR): KPC) | 64 µg/mL | 32 µg/mL | 8 µg/mL
8 | Klebsiella pneumoniae isolate primary sludge #197 (carbapenemase genes (PCR): KPC) | 32 µg/mL | 16 µg/mL | 32 µg/mL
9 | Escherichia coli isolate primary sludge #172 (carbapenemase genes (PCR): KPC) | 32 µg/mL | 64 µg/mL | 8 µg/mL
10 | Enterobacter bugandensis isolate sewage #130 (carbapenemase genes (PCR): KPC) | 64 µg/mL | 32 µg/mL | 16 µg/mL
11 | Klebsiella variicola isolate primary sludge #259 (carbapenemase genes (PCR): KPC) | 32 µg/mL | 8 µg/mL | 4 µg/mL
12 | Enterobacter cloacae isolate secondary sludge #172 (carbapenemase genes (PCR): KPC+GES) | 64 µg/mL | 32 µg/mL | 8 µg/mL
13 | Klebsiella oxytoca isolate primary sludge #229 (carbapenemase genes (PCR): KPC) | 64 µg/mL | 32 µg/mL | 32 µg/mL
14 | Pseudomonas aeruginosa isolate sewage #184 (carbapenemase genes (PCR): VIM) | 64 µg/mL | 32 µg/mL | 64 µg/mL
15 | Klebsiella pneumoniae isolate sewage #224 (carbapenemase genes (PCR): KPC) | 64 µg/mL | 16 µg/mL | 8 µg/mL
16 | Enterobacter cloacae isolate primary sludge #188 (carbapenemase genes (PCR): KPC) | 32 µg/mL | 32 µg/mL | 16 µg/mL
17 | Pseudomonas putida isolate secondary sludge #50 (carbapenemase genes (PCR): IMP) | > 128 µg/mL | 64 µg/mL | 64 µg/mL
18 | Kluyvera ascorbata isolate sewage #107 (carbapenemase genes (PCR): KPC) | > 128 µg/mL | 128 µg/mL | 64 µg/mL
19 | Klebsiella variicola isolate sewage #41 (carbapenemase genes (PCR): KPC) | 32 µg/mL | 32 µg/mL | 32 µg/mL
20 | Klebsiella variicola isolate primary sludge #88 (carbapenemase genes (PCR): GES) | 64 µg/mL | 32 µg/mL | 32 µg/mL
21 | Kluyvera georgiana isolate sewage #149 (carbapenemase genes (PCR): KPC) | 32 µg/mL | 16 µg/mL | 4 µg/mL
22 | Klebsiella oxytoca isolate sewage #167 (carbapenemase genes (PCR): KPC) | 64 µg/mL | 64 µg/mL | 32 µg/mL
23 | Pseudomonas putida isolate sewage #35 (carbapenemase genes (PCR): IMP) | 64 µg/mL | 16 µg/mL | 4 µg/mL
24 | Klebsiella oxytoca isolate secondary sludge #199 (carbapenemase genes (PCR): KPC) | 32 µg/mL | 8 µg/mL | 8 µg/mL
25 | Kluyvera cryocrescens isolate primary sludge #46 (carbapenemase genes (PCR): KPC) | 128 µg/mL | 128 µg/mL | 64 µg/mL

Row | Test System | MIC (Meropenem) | MIC (Imipenem) | MIC (Ertapenem)
26 | Klebsiella pneumoniae isolate secondary sludge #178 (carbapenemase genes (PCR): KPC) | 32 µg/mL | 16 µg/mL | 8 µg/mL
27 | Klebsiella pneumoniae isolate sewage #197 (carbapenemase genes (PCR): KPC) | 32 µg/mL | 16 µg/mL | 16 µg/mL
28 | Enterobacter cloacae isolate primary sludge #85 (carbapenemase genes (PCR): KPC) | 64 µg/mL | 32 µg/mL | 16 µg/mL
29 | Pseudomonas aeruginosa isolate primary sludge #256 (carbapenemase genes (PCR): VIM) | 64 µg/mL | 32 µg/mL | 8 µg/mL
30 | Klebsiella pneumoniae isolate secondary sludge #82 (carbapenemase genes (PCR): KPC+GES) | 128 µg/mL | 64 µg/mL | 32 µg/mL
31 | Enterobacter kobei isolate sewage #124 (carbapenemase genes (PCR): KPC+IMP) | 64 µg/mL | 32 µg/mL | 8 µg/mL
32 | Enterobacter cloacae isolate sewage #122 (carbapenemase genes (PCR): KPC) | 64 µg/mL | 32 µg/mL | 8 µg/mL
33 | Enterobacter kobei isolate sewage #145 (carbapenemase genes (PCR): KPC) | 64 µg/mL | 32 µg/mL | 8 µg/mL
34 | Klebsiella pneumoniae isolate primary sludge #11 (carbapenemase genes (PCR): OXA-48) | 128 µg/mL | 128 µg/mL | 64 µg/mL
35 | Klebsiella pneumoniae isolate secondary sludge #180 (carbapenemase genes (PCR): KPC) | 64 µg/mL | 32 µg/mL | 8 µg/mL
36 | Pseudomonas putida isolate sewage #103 (carbapenemase genes (PCR): IMP) | 64 µg/mL | 16 µg/mL | 64 µg/mL
37 | Enterobacter asburiae isolate primary sludge #91 (carbapenemase genes (PCR): KPC+GES) | 32 µg/mL | 16 µg/mL | 4 µg/mL
38 | Enterobacter bugandensis isolate primary sludge #28 (carbapenemase genes (PCR): KPC) | 128 µg/mL | 128 µg/mL | 64 µg/mL
39 | Pseudomonas aeruginosa isolate secondary sludge #207 (carbapenemase genes (PCR): VIM) | 64 µg/mL | 32 µg/mL | 8 µg/mL
40 | Kluyvera ascorbata isolate sewage #10 (carbapenemase genes (PCR): KPC) | > 128 µg/mL | 32 µg/mL | 8 µg/mL
41 | Enterobacter cloacae isolate primary sludge #6 (carbapenemase genes (PCR): KPC) | 64 µg/mL | 128 µg/mL | 64 µg/mL
42 | Klebsiella oxytoca isolate secondary sludge #188 (carbapenemase genes (PCR): KPC) | 64 µg/mL | 32 µg/mL | 8 µg/mL
43 | Enterobacter cloacae isolate sewage #172 (carbapenemase genes (PCR): KPC) | 32 µg/mL | 16 µg/mL | 4 µg/mL
44 | Kluyvera cryocrescens isolate sewage #84 (carbapenemase genes (PCR): KPC) | 64 µg/mL | 128 µg/mL | 32 µg/mL
45 | Klebsiella pneumoniae isolate primary sludge #201 (carbapenemase genes (PCR): KPC) | 32 µg/mL | 16 µg/mL | 32 µg/mL
46 | Klebsiella pneumoniae isolate primary sludge #71 (carbapenemase genes (PCR): KPC) | 128 µg/mL | 64 µg/mL | 32 µg/mL
47 | Enterobacter cloacae isolate sewage #80 (carbapenemase genes (PCR): KPC) | 64 µg/mL | 64 µg/mL | 64 µg/mL
48 | Klebsiella oxytoca isolate primary sludge #210 (carbapenemase genes (PCR): GES) | 32 µg/mL | 32 µg/mL | 8 µg/mL
49 | Pseudomonas aeruginosa isolate secondary sludge #212 (carbapenemase genes (PCR): VIM) | 64 µg/mL | 32 µg/mL | 8 µg/mL
50 | Pseudomonas koreensis isolate sewage #1 (carbapenemase genes (PCR): ND) | 16 µg/mL | 4 µg/mL | 4 µg/mL

MIC by broth microdilution (CLSI, 0.25-128 µg/mL, 18 h, 37 °C) of Gram-negative wastewater isolates picked on carbapenem-selective plates; higher = less susceptible. No active / inactive call. Isolates were selected for resistance.
